Data as given in PMC10405735.
No constants are given. Whether binding was seen depends on the method and setting. For some of these results: In cells and extracts the contact can be indirect. Some results given as binding are weak or reduced against the parent protein; the word gives no strength. For some of these results: Where a sequence is shown, tags or fusion partners need not be part of it.

Chains of the proteins cited; added tags and fusions are not shown. Lines headed by an entry give the natural chain unless they say otherwise; changes in a name come on top. Residues count along the entry.
UniProt O15218: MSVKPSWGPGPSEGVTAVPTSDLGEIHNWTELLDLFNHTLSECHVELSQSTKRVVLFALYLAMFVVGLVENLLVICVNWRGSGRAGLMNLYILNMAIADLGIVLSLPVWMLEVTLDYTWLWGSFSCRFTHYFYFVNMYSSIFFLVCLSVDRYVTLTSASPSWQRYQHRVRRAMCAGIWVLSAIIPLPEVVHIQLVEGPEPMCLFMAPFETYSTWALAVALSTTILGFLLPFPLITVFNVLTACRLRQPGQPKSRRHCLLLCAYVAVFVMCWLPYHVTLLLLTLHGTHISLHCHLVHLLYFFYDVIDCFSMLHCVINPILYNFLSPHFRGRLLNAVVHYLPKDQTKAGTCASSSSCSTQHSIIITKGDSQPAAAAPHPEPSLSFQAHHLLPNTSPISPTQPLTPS
UniProt P25106: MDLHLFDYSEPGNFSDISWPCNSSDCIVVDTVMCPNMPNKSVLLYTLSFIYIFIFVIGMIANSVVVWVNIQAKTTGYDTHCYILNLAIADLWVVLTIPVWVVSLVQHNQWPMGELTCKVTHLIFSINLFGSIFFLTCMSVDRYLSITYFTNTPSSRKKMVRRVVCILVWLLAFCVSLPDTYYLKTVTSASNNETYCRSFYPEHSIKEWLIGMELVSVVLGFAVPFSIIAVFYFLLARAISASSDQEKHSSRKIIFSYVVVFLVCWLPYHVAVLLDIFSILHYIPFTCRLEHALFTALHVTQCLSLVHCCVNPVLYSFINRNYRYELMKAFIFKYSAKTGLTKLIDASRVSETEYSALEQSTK
UniProt Q99731, residues 22-98: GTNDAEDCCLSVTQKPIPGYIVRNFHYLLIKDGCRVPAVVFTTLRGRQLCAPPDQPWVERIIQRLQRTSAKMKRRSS
UniProt P78556, residues 27-96: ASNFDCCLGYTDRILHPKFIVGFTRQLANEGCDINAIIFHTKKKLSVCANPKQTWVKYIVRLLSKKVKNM
UniProt O00585, residues 24-134: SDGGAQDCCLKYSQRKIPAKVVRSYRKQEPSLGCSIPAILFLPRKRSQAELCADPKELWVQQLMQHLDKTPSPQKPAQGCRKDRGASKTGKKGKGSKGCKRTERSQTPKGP
UniProt O43927, residues 23-109: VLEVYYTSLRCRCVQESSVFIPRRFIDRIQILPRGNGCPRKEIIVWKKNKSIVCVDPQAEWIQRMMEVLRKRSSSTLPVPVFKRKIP
UniProt P10148, residues 24-148: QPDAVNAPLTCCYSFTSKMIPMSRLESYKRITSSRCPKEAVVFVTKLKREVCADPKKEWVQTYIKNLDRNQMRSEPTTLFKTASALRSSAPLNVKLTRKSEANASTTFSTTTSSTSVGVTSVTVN
UniProt O89093, residues 28-97: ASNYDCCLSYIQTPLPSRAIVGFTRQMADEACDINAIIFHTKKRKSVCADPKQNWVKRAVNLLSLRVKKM
UniProt P49407: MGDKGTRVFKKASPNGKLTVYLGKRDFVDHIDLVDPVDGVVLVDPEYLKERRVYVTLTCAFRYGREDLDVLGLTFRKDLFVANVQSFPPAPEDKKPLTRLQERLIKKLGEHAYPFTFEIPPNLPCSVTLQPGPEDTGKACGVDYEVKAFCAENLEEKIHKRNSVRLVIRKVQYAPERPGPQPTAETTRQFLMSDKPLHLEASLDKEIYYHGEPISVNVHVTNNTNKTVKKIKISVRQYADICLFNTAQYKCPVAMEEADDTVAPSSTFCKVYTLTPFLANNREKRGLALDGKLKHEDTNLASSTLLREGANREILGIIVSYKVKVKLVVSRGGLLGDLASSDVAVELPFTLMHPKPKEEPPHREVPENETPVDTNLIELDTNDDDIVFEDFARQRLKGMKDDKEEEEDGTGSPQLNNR
UniProt P32121: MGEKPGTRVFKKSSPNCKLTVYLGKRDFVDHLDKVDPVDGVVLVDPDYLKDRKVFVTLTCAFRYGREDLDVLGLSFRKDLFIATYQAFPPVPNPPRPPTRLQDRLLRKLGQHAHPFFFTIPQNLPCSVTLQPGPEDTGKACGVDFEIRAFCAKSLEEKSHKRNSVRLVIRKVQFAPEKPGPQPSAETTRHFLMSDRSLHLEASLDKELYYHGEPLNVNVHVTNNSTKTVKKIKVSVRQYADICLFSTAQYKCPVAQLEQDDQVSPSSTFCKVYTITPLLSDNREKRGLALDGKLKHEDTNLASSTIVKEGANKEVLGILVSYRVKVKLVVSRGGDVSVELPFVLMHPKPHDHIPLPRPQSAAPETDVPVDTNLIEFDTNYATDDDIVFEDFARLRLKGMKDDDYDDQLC

Key:
[1] = target: T1, murine GPR182 (mGPR182), expressed from mGPR182 T2A GFP in 300.19 pre-B cells (mouse) (UniProt P43142); test: flow cytometry on cells; binding: 300.19 pre-B cells stably expressing the receptor (T2A GFP) incubated with 100 or 200 nM fluorescently labelled chemokine at 4°C for 45 min; MFI of parental cells subtracted; only the binder purified
T1 sequence: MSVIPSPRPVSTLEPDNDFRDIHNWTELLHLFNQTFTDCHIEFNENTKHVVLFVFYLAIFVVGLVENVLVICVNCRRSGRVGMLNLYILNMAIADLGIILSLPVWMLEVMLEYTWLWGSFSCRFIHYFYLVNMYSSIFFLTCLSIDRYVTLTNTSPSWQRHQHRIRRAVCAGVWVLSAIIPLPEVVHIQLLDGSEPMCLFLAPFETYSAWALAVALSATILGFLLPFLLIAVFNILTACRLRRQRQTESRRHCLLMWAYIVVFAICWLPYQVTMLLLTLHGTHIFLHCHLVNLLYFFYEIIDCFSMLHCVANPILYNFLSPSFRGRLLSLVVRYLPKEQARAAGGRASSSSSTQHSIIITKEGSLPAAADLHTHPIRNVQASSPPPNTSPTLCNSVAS

[2] = target: human GPR182 (hGPR182), expressed from hGPR182 T2A GFP in 300.19 pre-B cells (human) (UniProt O15218); test: flow cytometry on cells; uptake: 300.19 pre-B cells stably expressing the receptor (T2A GFP), together with parental cells, incubated with 20, 100 or 200 nM fluorescently labelled chemokine at 37°C for 45 min; MFI of parental cells subtracted; only the binder purified
[3] = target: T1, murine GPR182 (mGPR182), expressed from mGPR182 T2A GFP in 300.19 pre-B cells (mouse); test: as above
[4] = target: human GPR182 (hGPR182), expressed from hGPR182 T2A GFP in 300.19 pre-B cells (human) (UniProt O15218); test: flow cytometry on cells; competition binding at 4°C: 300.19 cells expressing mGPR182 or hGPR182 with 3 nM fluorescent chemokine and increasing concentrations of its unlabeled counterpart, 45 min; only the binder purified
[5] = target: human GPR182 (hGPR182), expressed from hGPR182 T2A GFP in 300.19 pre-B cells (human) (UniProt O15218); test: flow cytometry on cells; competition scavenging at 37°C: 300.19 cells expressing mGPR182 or hGPR182 with 3 nM fluorescent chemokine and increasing concentrations of its unlabeled counterpart, 45 min; only the binder purified
[6] = target: T2, hACKR4 (T2A GFP) in 300.19 pre-B cells (human) (UniProt Q9NPB9); test: flow cytometry on cells; uptake: 300.19 pre-B cells stably expressing the receptor (T2A GFP), together with parental cells, incubated with 20, 100 or 200 nM fluorescently labelled chemokine at 37°C for 45 min; MFI of parental cells subtracted; only the binder purified
T2 sequence: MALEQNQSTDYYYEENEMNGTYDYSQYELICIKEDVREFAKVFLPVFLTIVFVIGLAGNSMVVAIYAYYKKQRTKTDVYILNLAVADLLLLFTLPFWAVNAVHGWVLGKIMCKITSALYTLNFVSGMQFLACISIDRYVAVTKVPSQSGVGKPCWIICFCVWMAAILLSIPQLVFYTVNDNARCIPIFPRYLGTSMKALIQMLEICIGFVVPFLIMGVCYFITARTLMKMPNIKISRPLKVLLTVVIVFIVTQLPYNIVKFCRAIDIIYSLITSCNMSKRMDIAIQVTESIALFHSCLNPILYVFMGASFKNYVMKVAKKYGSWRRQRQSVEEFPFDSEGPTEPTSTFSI

[7] = target: human GPR182 (hGPR182), expressed from hGPR182 T2A GFP in 300.19 pre-B cells (human) (UniProt O15218); test: flow cytometry on cells; binding: 300.19 pre-B cells stably expressing the receptor (T2A GFP) incubated with 100 or 200 nM fluorescently labelled chemokine at 4°C for 45 min; MFI of parental cells subtracted; only the binder purified
[8] = target: hACKR3 (T2A GFP) in 300.19 pre-B cells (human) (UniProt P25106); test: as above
[9] = target: T3, ACKR2 (T2A GFP) in 300.19 pre-B cells (UniProt O00590); test: as above
T3 sequence: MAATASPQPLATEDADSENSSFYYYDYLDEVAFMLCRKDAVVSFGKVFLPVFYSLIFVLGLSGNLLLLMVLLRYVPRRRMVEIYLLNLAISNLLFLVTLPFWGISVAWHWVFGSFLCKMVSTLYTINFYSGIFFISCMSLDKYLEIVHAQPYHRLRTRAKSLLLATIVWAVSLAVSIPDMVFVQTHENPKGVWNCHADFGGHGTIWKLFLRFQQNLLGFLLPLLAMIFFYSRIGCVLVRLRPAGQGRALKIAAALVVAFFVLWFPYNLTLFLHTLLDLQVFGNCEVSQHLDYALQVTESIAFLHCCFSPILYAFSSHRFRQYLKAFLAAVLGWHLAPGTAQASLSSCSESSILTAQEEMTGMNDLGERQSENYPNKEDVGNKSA

[10] = target: T4, ACKR1 (T2A GFP) in 300.19 pre-B cells (UniProt Q16570); test: as above
T4 sequence: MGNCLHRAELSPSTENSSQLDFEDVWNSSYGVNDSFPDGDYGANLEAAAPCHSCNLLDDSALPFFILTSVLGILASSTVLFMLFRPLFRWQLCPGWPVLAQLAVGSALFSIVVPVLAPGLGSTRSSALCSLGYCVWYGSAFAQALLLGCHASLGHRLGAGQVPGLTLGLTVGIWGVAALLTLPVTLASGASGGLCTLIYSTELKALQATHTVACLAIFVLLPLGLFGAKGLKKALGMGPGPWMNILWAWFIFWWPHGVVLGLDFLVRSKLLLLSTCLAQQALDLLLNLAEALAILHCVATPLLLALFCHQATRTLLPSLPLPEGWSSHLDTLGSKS

[11] = target: hACKR3 (T2A GFP) in 300.19 pre-B cells (human) (UniProt P25106); test: flow cytometry on cells; uptake: 300.19 pre-B cells stably expressing the receptor (T2A GFP), together with parental cells, incubated with 20, 100 or 200 nM fluorescently labelled chemokine at 37°C for 45 min; MFI of parental cells subtracted; only the binder purified
[12] = target: T3, ACKR2 (T2A GFP) in 300.19 pre-B cells; test: as above
[13] = target: T4, ACKR1 (T2A GFP) in 300.19 pre-B cells; test: as above
[14] = target: T1, murine GPR182 (mGPR182), expressed from mGPR182 T2A GFP in 300.19 pre-B cells (mouse); test: flow cytometry on cells; competition binding at 4°C: 300.19 cells expressing mGPR182 or hGPR182 with 3 nM fluorescent chemokine and increasing concentrations of its unlabeled counterpart, 45 min; only the binder purified
[15] = target: T1, murine GPR182 (mGPR182), expressed from mGPR182 T2A GFP in 300.19 pre-B cells (mouse); test: flow cytometry on cells; competition scavenging at 37°C: 300.19 cells expressing mGPR182 or hGPR182 with 3 nM fluorescent chemokine and increasing concentrations of its unlabeled counterpart, 45 min; only the binder purified
[16] = target: T5, mGPR182 T2A GFP in HEK293 cells (mouse) (UniProt P43142); test: uptake of fluorescent chemokine by confocal microscopy; HEK293 cells expressing mGPR182 or hGPR182 (T2A GFP) incubated with 100-200 nM fluorescent chemokine at 37°C, fixed and imaged (3D reconstruction), or imaged live; only the binder purified
T5 sequence: T1 sequence

hGPR182-nLuc11 (human) = hGPR182-nLuc11 (human) (UniProt O15218); test: split reporter; HeLa cells co-transfected (1:1) with receptor-nLuc11 and β-arrestin with inserted nLuc156, coelenterazine H, 37°C; basal signal and after 300 nM chemokine
hCCR6-nLuc11 (human) = target: T6, hCCR6-nLuc11 (human) (UniProt P51684); test: as above
T6 sequence: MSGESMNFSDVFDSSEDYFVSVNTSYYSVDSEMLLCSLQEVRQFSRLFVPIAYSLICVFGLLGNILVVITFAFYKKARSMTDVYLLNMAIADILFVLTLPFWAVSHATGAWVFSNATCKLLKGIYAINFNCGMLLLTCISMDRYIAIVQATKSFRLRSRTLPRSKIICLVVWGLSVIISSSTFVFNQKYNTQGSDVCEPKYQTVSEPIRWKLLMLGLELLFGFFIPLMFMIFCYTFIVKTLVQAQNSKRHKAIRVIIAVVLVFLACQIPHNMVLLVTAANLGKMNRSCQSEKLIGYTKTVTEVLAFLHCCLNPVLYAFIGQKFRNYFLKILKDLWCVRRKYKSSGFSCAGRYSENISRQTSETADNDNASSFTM

mGPR182-nLuc11 (mouse) = target: T7, mGPR182-nLuc11 (mouse) (UniProt P43142); test: as above
T7 sequence: T1 sequence

hCCL19, fluorescently labelled (from UniProt Q99731 22-98) (ligand)
binding [1]: binds | binding [2]: binds | binding [3]: binds | binding [4]: binds | binding [5]: binds

hCCL20, fluorescently labelled (from UniProt P78556 27-96) (ligand)
binding [1]: binds | binding [2]: binds | binding [3]: binds

hCCL21, fluorescently labelled (from UniProt O00585 24-134) (ligand)
binding [2]: binds weakly | binding [6]: binds | binding [3]: binds weakly

hCXCL13, fluorescently labelled (from UniProt O43927 23-109) (ligand)
binding [7]: binds | binding [8]: no binding (tested: 100 nM) | binding [1]: binds | binding [9]: no binding (tested: 100 nM) | binding [10]: no binding (tested: 100 nM) | binding [2]: binds | binding [11]: no binding (tested: 100 nM) | binding [3]: binds | binding [12]: no binding (tested: 100 nM) | binding [13]: no binding (tested: 100 nM) | binding [4]: binds | binding [14]: binds | binding [5]: binds | binding [15]: binds

mCCL2, fluorescently labelled (from UniProt P10148 24-148) (ligand)
binding [2]: binds weakly | binding [3]: binds

mCCL20, fluorescently labelled (from UniProt O89093 28-97) (ligand)
binding [16]: binds | binding [1]: binds | binding [2]: no binding (tested: 200 nM) | binding [3]: binds | binding [14]: binds

β-arrestin1A-nLuc156 (from UniProt P49407 1-418)
binding (hGPR182-nLuc11 (human)): binds | binding (hCCR6-nLuc11 (human)): binds | binding (mGPR182-nLuc11 (mouse)): binds

β-arrestin2i1-nLuc156 (from UniProt P32121 1-409)
binding (hCCR6-nLuc11 (human)): binds | binding (mGPR182-nLuc11 (mouse)): binds
